According to the supplement of paper PMC4604168 (melanoma cell lines):
The other results are listed elsewhere or left out. Single values are uncertain, as repeats are few or missing.

Key:
Experiment in all cases: cell count relative to DMSO control; melanoma cells; higher = more viable cells
Conditions in all cases: library dose: low library concentration; 72 h
MZ2-MEL = tested on: MZ2-MEL
MeWo = tested on: MeWo
RPMI7951 = tested on: RPMI7951
RVH-421 = tested on: RVH-421
SkMel28 = tested on: SkMel28
SkMel2 = tested on: SkMel2
SkMel30 = tested on: SkMel30
SkMel5 = tested on: SkMel5
UACC257 = tested on: UACC257
UACC62 = tested on: UACC62
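Note: cell number obtained by counting DAPI-stained nuclei in high-throughput microscope images with image analysis software, screen run in 1,536-well plates.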

COc1cc(Nc2ncc(F)c(Nc3ccc4c(n3)NC(=O)C(C)(C)O4)n2)cc(OC)c1OC [Tamatinib] + C=CCn1c(=O)c2cnc(Nc3ccc(N4CCN(C)CC4)cc3)nc2n1-c1cccc(C(C)(C)O)n1 [MK1775] (first compound 0.4 µM, partner dose 0.02 µM)
cell count (MZ2-MEL): 94.1% | cell count (MeWo): 88.6% | cell count (RPMI7951): 74.9% | cell count (RVH-421): 81.6% | cell count (SkMel28): 78.3% | cell count (SkMel2): 84.7% | cell count (SkMel30): 97.4% | cell count (SkMel5): 81.8% | cell count (UACC257): 72% | cell count (UACC62): 79.7%

O=c1[nH]nc(Sc2ncc([N+](=O)[O-])s2)n1-c1ccc2c(c1)OCCO2 + CCc1ccc(CCOc2ccc(CC3SC(=O)NC3=O)cc2)nc1 [pioglitazone] (first compound 0.2 µM, partner dose 2 µM)
cell count (MZ2-MEL): 98.9% | cell count (MeWo): 101% | cell count (RPMI7951): 87.4% | cell count (RVH-421): 95.5% | cell count (SkMel28): 106% | cell count (SkMel2): 109% | cell count (SkMel30): 104% | cell count (SkMel5): 94.9% | cell count (UACC257): 89.4% | cell count (UACC62): 94%

CC1(C)NC(=O)N(c2ccc([N+](=O)[O-])c(C(F)(F)F)c2)C1=O [nilutamide] + OCCn1cc(-c2cnc3nnn(Cc4ccc5ncccc5c4)c3n2)cn1 [PF04217903] (first compound 1 µM, partner dose 1 µM)
cell count (MZ2-MEL): 104% | cell count (MeWo): 107% | cell count (RPMI7951): 121% | cell count (RVH-421): 86.9% | cell count (SkMel28): 114% | cell count (SkMel2): 99.8% | cell count (SkMel30): 118% | cell count (SkMel5): 104% | cell count (UACC257): 102% | cell count (UACC62): 114%

Cn1cncc1[C@@](N)(c1ccc(Cl)cc1)c1ccc2c(c1)c(-c1cccc(Cl)c1)cc(=O)n2C [tipifarnib] + CN(C)S(=O)(=O)c1ccc2c(c1)/C(=C/c1cc3c([nH]1)CCCC3)C(=O)N2 [SU6656] (first compound 0.01 µM, partner dose 0.4 µM)
cell count (MZ2-MEL): 103% | cell count (MeWo): 94.9% | cell count (RPMI7951): 79.6% | cell count (RVH-421): 96.4% | cell count (SkMel28): 75.3% | cell count (SkMel2): 86.7% | cell count (SkMel30): 97.8% | cell count (SkMel5): 99.5% | cell count (UACC257): 82.7% | cell count (UACC62): 66.2%

COc1cc(Nc2ncc(F)c(Nc3ccc4c(n3)NC(=O)C(C)(C)O4)n2)cc(OC)c1OC [Tamatinib] + Cc1ccc(NC(=O)c2cccc(N(C)C)c2)cc1NC(=O)c1ccc(O)cc1 [ZM336372] (first compound 0.4 µM, partner dose 2 µM)
cell count (MZ2-MEL): 74.4% | cell count (MeWo): 86.6% | cell count (RPMI7951): 72.1% | cell count (RVH-421): 86% | cell count (SkMel28): 81.2% | cell count (SkMel2): 101% | cell count (SkMel30): 81.1% | cell count (SkMel5): 90.9% | cell count (UACC257): 77.4% | cell count (UACC62): 82.6%

O=c1[nH]nc(Sc2ncc([N+](=O)[O-])s2)n1-c1ccc2c(c1)OCCO2 + COc1ccc2c(c1)CCC1C2CCC2(C)C(NCCCCCCN3C(=O)C=CC3=O)CCC12 [U73122] (first compound 0.2 µM, partner dose 0.4 µM)
cell count (MZ2-MEL): 94.3% | cell count (MeWo): 95.2% | cell count (RPMI7951): 91.9% | cell count (RVH-421): 95.2% | cell count (SkMel28): 107% | cell count (SkMel2): 107% | cell count (SkMel30): 108% | cell count (SkMel5): 98.7% | cell count (UACC257): 108% | cell count (UACC62): 82.6%

C[C@@H]1CCN(C(=O)CC#N)C[C@@H]1N(C)c1ncnc2[nH]ccc12 + NCC(=O)Nc1ccc(-n2nc(C(F)(F)F)cc2-c2ccc3c(ccc4ccccc43)c2)cc1 [OSU03012] (first compound 1 µM, partner dose 1 µM)
cell count (MZ2-MEL): 88.9% | cell count (MeWo): 58.5% | cell count (RPMI7951): 107% | cell count (RVH-421): 107% | cell count (SkMel28): 85.7% | cell count (SkMel2): 65.7% | cell count (SkMel30): 46.3% | cell count (SkMel5): 85.2% | cell count (UACC257): 90.7% | cell count (UACC62): 96.4%

O=C(O)c1ccc(-c2c[nH]c3ncc(-c4ccccc4)cc23)cc1C1CCCC1 + NCC(=O)Nc1ccc(-n2nc(C(F)(F)F)cc2-c2ccc3c(ccc4ccccc43)c2)cc1 [OSU03012] (first compound 0.16 µM, partner dose 1 µM)
cell count (MZ2-MEL): 101% | cell count (MeWo): 65.6% | cell count (RPMI7951): 96% | cell count (RVH-421): 86.4% | cell count (SkMel28): 77.6% | cell count (SkMel2): 88.4% | cell count (SkMel30): 55.5% | cell count (SkMel5): 102% | cell count (UACC257): 88.1% | cell count (UACC62): 93.2%

Cn1cncc1[C@@](N)(c1ccc(Cl)cc1)c1ccc2c(c1)c(-c1cccc(Cl)c1)cc(=O)n2C [tipifarnib] + O=C(O)c1ccc(-c2c[nH]c3ncc(-c4ccccc4)cc23)cc1C1CCCC1 [GSK650394] (first compound 0.01 µM, partner dose 0.16 µM)
cell count (MZ2-MEL): 101% | cell count (MeWo): 77.2% | cell count (RPMI7951): 72.4% | cell count (RVH-421): 93.1% | cell count (SkMel28): 86.6% | cell count (SkMel2): 83% | cell count (SkMel30): 102% | cell count (SkMel5): 95.6% | cell count (UACC257): 63.1% | cell count (UACC62): 79.1%

O=c1[nH]nc(Sc2ncc([N+](=O)[O-])s2)n1-c1ccc2c(c1)OCCO2 + COc1cc(N2CCC(N3CCN(C)CC3)CC2)ccc1Nc1ncc(Cl)c(Nc2ccccc2S(=O)(=O)C(C)C)n1 [NVP-TAE684] (first compound 0.2 µM, partner dose 0.08 µM)
cell count (MZ2-MEL): 98.9% | cell count (MeWo): 89% | cell count (RPMI7951): 85.3% | cell count (RVH-421): 110% | cell count (SkMel28): 86.5% | cell count (SkMel2): 90.6% | cell count (SkMel30): 129% | cell count (SkMel5): 97.6% | cell count (UACC257): 87.9% | cell count (UACC62): 75.7%

O=c1[nH]nc(Sc2ncc([N+](=O)[O-])s2)n1-c1ccc2c(c1)OCCO2 + Cc1cc(N2CCOCC2)cc2[nH]c(-c3c(NC[C@@H](O)c4cccc(Cl)c4)cc[nH]c3=O)nc12 [BMS536924] (first compound 0.2 µM, partner dose 0.2 µM)
cell count (MZ2-MEL): 93.2% | cell count (MeWo): 93% | cell count (RPMI7951): 89.2% | cell count (RVH-421): 80.8% | cell count (SkMel28): 98.3% | cell count (SkMel2): 97.6% | cell count (SkMel30): 86.4% | cell count (SkMel5): 94.6% | cell count (UACC257): 97.9% | cell count (UACC62): 102%
